For 167 variants, self-cleavage results are on record in the RNAGym collection of RNA variant scans (doi:10.7554/elife.90254).

The source gives no read counts; variants with many changes may rest on few reads.

B1: LINE1-full (parent)
chain: UACGUAGGUGGUUUUCCCCUGAUAGUGCUAAGGGGGCCUGGAAGUUUGGACUGGGCAGAGCUCAACACAGCGUGGCAAAGUGGCUGUGGCUAGACUGCCUCUCUGGAUUCCUCGUCACUCAGCAGGGCAUCUCUGAGAGAAAUGCC

In the data set the parent is B1. Put plainly: self-cleavage, relative activity (ratio to wild type); higher = more cleavage; in vitro, sequencing; the parent is a self-cleaving ribozyme.
U14C U46C U62C G114U U132C: the self-cleavage came out at 0.1. For U12G U39C G74A A141G the value was 0.87; for U26C A79G A140G, 1.17. A42G G49U A78U A94G U96C C113U U130C C131A A142G: the self-cleavage stood at 0.04. As to U15C A57G U73C, the self-cleavage was found to be 0. For A65G U73C A78G G88U, the self-cleavage came out at 0. As for A57G A77U G86A A117U, the figure is 0.04; as for A65G A77U U112C, 0.11; as for U87C U132A U134C, 0.4. For U12C U87C A92U U96C A141G the value was 0.92. In the case of U13C U15C A138G, the self-cleavage stood at 1.1. With G25A U115A U134A, the self-cleavage amounted to 0.89.

Consider U26C U39A A57G A67U A117G, for which the self-cleavage came out at 0. Regarding A6G U12C A69U C76U C128U A138U, the self-cleavage was 0. Regarding G33A G97A C113U, the self-cleavage is 0.13. Regarding C56U A57C U62A A79U U87A A92U A121U, the self-cleavage was found to be 0.06. Consider A77G U85A A140U U143C, for which the self-cleavage worked out at 0.03. As for G27A C84G U134A, the figure is 0; as for U26A A107G G127A, 1.36; as for U15C C61A U85C G93A U96A A141G, 0.04. Consider A2G U13C C56U A57G, for which the self-cleavage came out at 0.6. U9C U46C U87A U132C: the self-cleavage came out at 0.21.

As for U14A G21U A79G U85A A121G A140G, the self-cleavage was found to be 0.17. For A22G A94U A129G the value was 0.47; for G33A A92G A121U, 0.09; for U26C G97A A140G, 0.1.

With U14C G49A A94G, the self-cleavage came out at 0.25. As for A42U U45C A79G, the figure is 1.15.

As to A6U C71U U132C U134C, the self-cleavage was 0.85. Turning to A43G U45C A142G, the self-cleavage was determined as 1.25. For the variant G11C A65G U96A A140G, the self-cleavage is 0.08. For the variant U26C U85C U112A A129G, the self-cleavage came out at 0.

With A6U U87C A141G, the self-cleavage was found to be 0.2. For A43G A77G A117C A141U the value was 2.41. For U96C A138G A141G the value was 0; for U9C A30U A94G U130C, 1.31. Turning to U12C A79G A140G, the self-cleavage was 1.45.

On to A22G C76U A142G, for which the self-cleavage came out at 2.78. As for A2G A24G U119C, the figure is 1.31. For U20C A69G U132A the value was 0.38; for U20G A43G G53A, 0.57; for U81C U112G A138U, 1.53. For the variant C38U A94C U115A U132C A142U, the self-cleavage was found to be 0.01. For U26C U29C G35A G41A U115A, the self-cleavage amounted to 1.31.

Regarding A43U G58A A69U U85G U96C A117C A124G A142G, the self-cleavage amounted to 0. As for G41A A43G A117G, the figure is 2.1; as for A22U U87A U102C, 0.1; as for A2G A69U U85C A136U, 0.53. Turning to U73C U109G U115A, the self-cleavage was found to be 0.53. On to A24G U52A A64U C90U U108C, for which the self-cleavage was 0.07. Regarding U13C A59G A121G A136G, the self-cleavage amounted to 0.26.

On to U12A U26A U115C G126A, for which the self-cleavage came out at 1.15. In the case of U1A U5A A31G G55A, the self-cleavage worked out at 0.7. Consider G7C A30G G86A A124G G126A U134C, for which the self-cleavage turned out to be 0.03. As to U1C U45C U46C C71U U85C, the self-cleavage worked out at 0.08. Turning to A2G U26C A31G, the self-cleavage came out at 1.15. Turning to U9G G10U A77C, the self-cleavage is 0.77. For U15C C19U A117U the value was 1.81; for U14A U20C G75U A77G C131U, 0.81. As for C71U U87A U143A, the figure is 0.05. For C19U G135U C145U the value was 0.68. Turning to A57U U102C A142G, the self-cleavage was found to be 0.

Take A31U C51A A107C: the self-cleavage was 1.23. With U12C U15C A57G, the self-cleavage was 1.3. For U14C A30U U115C U130C U134A, the self-cleavage came to 0.97.

For G55A A140G A142G, the self-cleavage stood at 0.17. For U9A U14A G32A A79G U109C C118U A140G the value was 0.27; for A22U G34A A69U U104C, 0.11; for U52C A67G G114U A117U, 0.52. For the variant U15C U47A A50U C113U, the self-cleavage was found to be 0.77.

With U52A A57U U109C, the self-cleavage is 0.03. For U9A A64G A121G the value was 0. For U15G G35A A67G U87A the value was 0.14; for U14C U26G A65U A77G, 0.33; for U15C C90A U109A, 0.03.

Consider A42U C66U U100C U109C C146U, for which the self-cleavage stood at 0.02.

Regarding U20C C28U A69G, the self-cleavage stood at 0.

As to A42U U52A A57C A117C, the self-cleavage amounted to 0.18.

With A30G A64G A129U, the self-cleavage worked out at 0.71.

With U29C A43G A67G U119C, the self-cleavage was determined as 0. As for U12C U26C A59G A136G, the figure is 0.66; as for C18U U26A G41U A79G U115C, 0.78; as for U12C U20A A79G U115C A129U A140U, 1.75. As for U15C U85C U91C, the figure is 0; as for C98U A136G U143C, 0.58. A59U U73C C113A C146U: the self-cleavage is 1.23. For A24G U73A G80A U85C U96C U143C the value was 0.07; for A2G U130C A141G, 1.15. For the variant U13A A59U U132A, the self-cleavage is 1. For G53A A79G C120A U132C the value was 1.34. On to G75A U96A A129U, for which the self-cleavage amounted to 0.04. On to U14C U62A A141G, for which the self-cleavage worked out at 0.06.

Regarding G60U U130C G139A, the self-cleavage was determined as 0.05. For U12A G35A A136G the value was 1.41. For U102A U108A U119C the value was 1.62; for G10A U12C U14C A69G A79G G82A G89A, 0.12; for U23C G25A G33A A65G, 0.11. In the case of A77G A78G A107G, the self-cleavage amounted to 1.36. For U12C U100C A136U, the self-cleavage came to 1.64. For U14C U81C A92U, the self-cleavage is 2. Take U12C G41A U52A U62A U108G: the self-cleavage stood at 0.02. With A2G A42U A59U U104C, the self-cleavage worked out at 0.78. As for U1C U47C C98U C133U, the figure is 0.16. As for A42G U47C A77G, the figure is 0.57.

Regarding U46A U62C A138G, the self-cleavage is 0.05. As for A30C A50U U91C, the figure is 0. For U13C G82A A129C, the self-cleavage is 1.73. G4A C37U U132C: the self-cleavage amounted to 0.47. Take U73A U119C A136G: the self-cleavage came out at 1.89. For A6G A69G G75U U119C the value was 0.98; for U9C A22G U26C C37U G75C A78C U109A U115A, 0.91; for U47A G55A A57U A67U G88A U100C A107U, 0.01. As for A24G G35A A69G G127A U134G, the figure is 0.31; as for U15C U20A U100A, 1.15; as for U62C A79G U109C U112A A140G, 0.

As to U102C A117G G144A, the self-cleavage came out at 1.08.

U14C G60A U85C A107G: the self-cleavage was found to be 0.

On to C116U A129G A138G, for which the self-cleavage was determined as 1.45. As for U9A U115C U143C, the figure is 0.77. For U9A U14C U45C U85A the value was 0.3; for U73C A79G U134C, 0.89; for G4C A64U G86A U104C U134C, 0.07.

Consider A24U A64G A67U, for which the self-cleavage was found to be 0.21. For U12C G25U U39A C84U the value was 0.25; for U13C A77U U108C C113U U115C A138G, 0; for U5C U100C G127C U143C, 1.41.

Take U47C U96A U102C: the self-cleavage came out at 0.16.

Turning to U20A A30G C61U A79C A141G, the self-cleavage was found to be 0.06. U13A A107U C123G A136G: the self-cleavage came to 1.46. As for U9C C19U A117G, the figure is 1.51. With A69G U73C A138G, the self-cleavage came to 0.53. As for U12C C56A U85C, the figure is 0. As for C3U U14C U85C A121C, the figure is 0.33; as for U20A U52C U119G, 1.31; as for U91C U100C G139A, 1.93.

Consider U13A U20A C116A A140G, for which the self-cleavage turned out to be 0.53.

Take A92G U96C U119A: the self-cleavage was 0. For the variant U45C A50G U102C U143A, the self-cleavage came out at 0. As for G36A A43G A124G, the self-cleavage was found to be 0.86.

As to A57G C71A A78U A140G, the self-cleavage amounted to 0.03. On to U5C A30G U45C A140G, for which the self-cleavage worked out at 0.93. With U9G A31U C38A, the self-cleavage amounted to 0.92. As for U12A A57G U62A A117C A136G, the figure is 0.11; as for A43U U73A G137U, 1.01; as for A43G A59G U91A, 0.19.

With C38A A64U A94U A121G, the self-cleavage turned out to be 0.16.

Take G33A U47C U112A: the self-cleavage turned out to be 0.29. As for G10A A24G U52C A107G A117U A136G, the figure is 2.63; as for A67U U130C U132C, 0.26. With G7A A64G G83A, the self-cleavage turned out to be 0.23. Consider A50C A57U A64U A67G U109A A142G, for which the self-cleavage stood at 0.07. As for U26C A67G U112C A136G, the figure is 0; as for G10A U13C G21U G127U, 0.

With U26A A129G A140G, the self-cleavage stood at 1.07.

On to U20C A42G U85A A107U, for which the self-cleavage was 0.06. For U5C C51A U115C the value was 1.62; for A64U U96C A136U G137U, 0.04; for U5C U15C U115C, 0.4. For A22U G34A A50U U96G the value was 0.24; for A43U U91C G144C, 0.42; for A57U A136G A138U, 0.14. As to A24U A67G C128U G139A, the self-cleavage stood at 0.46. As for U26C A57G U91C, the figure is 0; as for G32U U45C U132C, 1.41; as for U87C U112A A140G, 0.17.

For G34A U112G A142U, the self-cleavage amounted to 1.58. As to A59U U87C A140G, the self-cleavage was found to be 0.13.
